# Some of the results follow. The energies were worked out here from pooled read counts, against the library average; single values are noisy.
# Biological target: T1, Pho4 (S. cerevisiae) (UniProt P07270)
# T1 sequence: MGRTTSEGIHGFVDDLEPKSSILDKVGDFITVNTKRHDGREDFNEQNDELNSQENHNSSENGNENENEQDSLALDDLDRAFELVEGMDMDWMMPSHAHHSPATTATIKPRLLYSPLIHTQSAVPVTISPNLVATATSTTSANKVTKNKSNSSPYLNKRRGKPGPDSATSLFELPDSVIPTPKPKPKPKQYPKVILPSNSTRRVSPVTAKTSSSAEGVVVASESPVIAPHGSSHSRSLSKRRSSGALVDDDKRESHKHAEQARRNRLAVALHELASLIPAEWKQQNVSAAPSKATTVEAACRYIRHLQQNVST
# Experiment: relative binding free energy (BET-seq); higher = weaker binding
# Conditions: reference: library average
row,Sequence,relative binding free energy
1,TGGGTCACGTGATGTA,0.22 kcal/mol
2,CAGGGCACGTGTCGTG,-0.16 kcal/mol
3,TGTCCCACGTGTTATT,-0.03 kcal/mol
4,ATGGTCACGTGGAGGA,0.1 kcal/mol
5,TTTTTCACGTGACGTT,0.45 kcal/mol
6,CATTGCACGTGGGGGA,-0.13 kcal/mol
7,TATTACACGTGGTTAT,0.03 kcal/mol
8,GGGCGCACGTGGGAAG,-0.09 kcal/mol
9,ATGGACACGTGCAAGG,0 kcal/mol
10,TTTTTCACGTGTCTTC,0.43 kcal/mol
11,TTACACACGTGTGGGT,0.07 kcal/mol
12,GTGTGCACGTGTTACT,-0.03 kcal/mol
13,TTGGTCACGTGTATCG,0.13 kcal/mol
14,CGATACACGTGGGTAG,-0.1 kcal/mol
15,GGTGGCACGTGTTGCT,-0.08 kcal/mol
16,CGTTGCACGTGTGATT,0 kcal/mol
17,CTTGACACGTGCGGGG,0.03 kcal/mol
18,TTTACCACGTGGTGGC,0.05 kcal/mol
19,TTTCTCACGTGCGGGT,0.22 kcal/mol
20,AGCTTCACGTGGTGTT,0.16 kcal/mol
21,CCTGGCACGTGGATGG,-0.11 kcal/mol
22,CTTGTCACGTGGGTAA,0.04 kcal/mol
23,TAGGGCACGTGTTGGA,-0.03 kcal/mol
24,TAGCTCACGTGGTAGA,0.17 kcal/mol
25,TGCTTCACGTGGTAGT,0.27 kcal/mol

row,Sequence,relative binding free energy
1,AGATTCACGTGGATGG,0.3 kcal/mol
2,CGTTGCACGTGGAGTT,0.01 kcal/mol
3,TGATACACGTGAAGGA,0.28 kcal/mol
4,GGCGGCACGTGGTGAA,-0.02 kcal/mol
5,TGGAGCACGTGCAAGT,0.03 kcal/mol
6,GGATACACGTGGGGTC,-0.05 kcal/mol
7,AAGGTCACGTGAGCAG,0.38 kcal/mol
8,TTTCTCACGTGACGGG,0.29 kcal/mol
9,ATCTGCACGTGTGTGC,0.01 kcal/mol
10,GTATTCACGTGAAGGA,0.24 kcal/mol
11,AGATACACGTGGAGGA,0.06 kcal/mol
12,AGGTTCACGTGGGGGA,0.13 kcal/mol
13,GTGATCACGTGGAGTG,0.07 kcal/mol
14,TAGGTCACGTGCGGTG,0.11 kcal/mol
15,TGTGTCACGTGTTTCA,0.02 kcal/mol
16,GGTTGCACGTGAAAGG,0.42 kcal/mol
17,TTGTACACGTGATTGG,0.1 kcal/mol
18,CGTGCCACGTGTGTGG,-0.06 kcal/mol
19,GTTAACACGTGGGCTT,-0.15 kcal/mol
20,CGGGTCACGTGCGTGT,-0.03 kcal/mol
21,GAGCGCACGTGGTTTG,-0.06 kcal/mol
22,TGTTACACGTGGTTCT,0.05 kcal/mol
23,AGGTACACGTGCTGGT,0.07 kcal/mol
24,AGTAGCACGTGACTGT,0.07 kcal/mol
25,TTCGTCACGTGCGTCT,0.13 kcal/mol

row,Sequence,relative binding free energy
1,TTGAGCACGTGAACGG,0.13 kcal/mol
2,CGTTTCACGTGGTGTT,0.1 kcal/mol
3,CGTTTCACGTGTTGCT,0.22 kcal/mol
4,AGGTGCACGTGTGCGC,-0.05 kcal/mol
5,TTAGACACGTGTTGGG,0.07 kcal/mol
6,GTGGTCACGTGAGAAG,0.37 kcal/mol
7,ATTATCACGTGACGTA,0.28 kcal/mol
8,TTGTTCACGTGGATGA,0.3 kcal/mol
9,TATGCCACGTGATTTT,0.19 kcal/mol
10,TTTGGCACGTGGCATA,-0.11 kcal/mol
11,TACGTCACGTGGTTGG,-0.02 kcal/mol
12,ATTAGCACGTGGTTAA,-0.16 kcal/mol
13,AGGTTCACGTGCTGGT,0.25 kcal/mol
14,TGTCTCACGTGGACGG,0.12 kcal/mol
15,TTGATCACGTGTAACG,0.37 kcal/mol
16,AGTCGCACGTGAATGG,0.23 kcal/mol
17,TTTCGCACGTGGATTT,-0.15 kcal/mol
18,GGAGGCACGTGTAGGC,-0.08 kcal/mol
19,GGTGTCACGTGTTATA,0.17 kcal/mol
20,ACGGTCACGTGTATTT,0.16 kcal/mol
21,GATTGCACGTGGAAGG,-0.02 kcal/mol
22,GTGGGCACGTGATTTG,0.13 kcal/mol
23,TAATTCACGTGGGCCT,0.23 kcal/mol
24,GGCGTCACGTGAGGGG,0.28 kcal/mol
25,GCGTTCACGTGCTTGT,0.19 kcal/mol

row,Sequence,relative binding free energy
1,CGGGACACGTGGCGGG,-0.1 kcal/mol
2,GTCGGCACGTGGAAAG,0.09 kcal/mol
3,CTTGGCACGTGGGGAT,-0.12 kcal/mol
4,TTCAGCACGTGGGTAG,-0.12 kcal/mol
5,TTGATCACGTGAGGCT,0.28 kcal/mol
6,TTGTCCACGTGATTTG,0.19 kcal/mol
7,TGGAGCACGTGAGGGT,0.13 kcal/mol
8,GGTTCCACGTGGCGAG,0.16 kcal/mol
9,TTGGTCACGTGCTAGA,0.14 kcal/mol
10,TATAACACGTGTATGG,-0.16 kcal/mol
11,TTGGCCACGTGTTGAG,-0.06 kcal/mol
12,GGATACACGTGGAGTT,0.09 kcal/mol
13,GTGTTCACGTGTTGGA,0.27 kcal/mol
14,GTGTGCACGTGAGAGG,0.37 kcal/mol
15,AATTTCACGTGTCAGT,0.43 kcal/mol
16,GTCGGCACGTGGGATG,-0.09 kcal/mol
17,GTTGGCACGTGCGAGC,-0.08 kcal/mol
18,ATGAGCACGTGGATTG,0.04 kcal/mol
19,TTTAACACGTGTAGGA,0.02 kcal/mol
20,TATGGCACGTGAAGCT,0.23 kcal/mol
21,GGGCACACGTGGGGTT,-0.02 kcal/mol
22,TGGTACACGTGTGGCT,0.07 kcal/mol
23,TCATTCACGTGAGGTT,0.3 kcal/mol
24,AGGTGCACGTGGGCAG,-0.26 kcal/mol
25,GAAGTCACGTGCGTTG,0.07 kcal/mol

row,Sequence,relative binding free energy
1,ATTGGCACGTGGAGTC,-0.14 kcal/mol
2,ATGGTCACGTGAGGCC,0.31 kcal/mol
3,GATTTCACGTGGTGAG,0.29 kcal/mol
4,TGAATCACGTGTGGTA,0.27 kcal/mol
5,TGGCCCACGTGGGTTA,-0.19 kcal/mol
6,GCGTACACGTGTTTTG,0.01 kcal/mol
7,ACTGTCACGTGAGTGT,0.17 kcal/mol
8,CTCTGCACGTGAGTGT,0.15 kcal/mol
9,GACGTCACGTGGTTTT,0.07 kcal/mol
10,ATGATCACGTGTAGGT,0.15 kcal/mol
11,TTTTACACGTGGGAGG,0.13 kcal/mol
12,TAGACCACGTGGGTTA,-0.06 kcal/mol
13,GGCTGCACGTGTACGG,0.15 kcal/mol
14,CAGGGCACGTGAGTTT,0.09 kcal/mol
15,TCTGTCACGTGTGTGT,0.14 kcal/mol
16,GGTTTCACGTGTATGG,0.32 kcal/mol
17,CATAGCACGTGGGATG,-0.23 kcal/mol
18,ATACGCACGTGAGGGT,0.07 kcal/mol
19,AGAGACACGTGTGGTT,-0.03 kcal/mol
20,ACTCGCACGTGTGGTT,-0.02 kcal/mol
21,TGATACACGTGTCGTA,0.05 kcal/mol
22,TCAGGCACGTGTTGGA,0 kcal/mol
23,CTTTCCACGTGTGGGT,0.2 kcal/mol
24,GATGGCACGTGTAGGT,0.1 kcal/mol
25,CGGTCCACGTGGGGAT,-0.04 kcal/mol

row,Sequence,relative binding free energy
1,AAAAACACGTGGGTTT,-0.02 kcal/mol
2,GGGCACACGTGATTTG,0.25 kcal/mol
3,GCGGACACGTGGGATT,0 kcal/mol
4,GCAGTCACGTGGTGGA,0.02 kcal/mol
5,GTTTACACGTGAAAGG,0.53 kcal/mol
6,TAGGCCACGTGGTAGG,-0.2 kcal/mol
7,CGGGGCACGTGGTCGA,-0.17 kcal/mol
8,ATTGCCACGTGTGGGA,-0.01 kcal/mol
9,TTCGACACGTGTTTAG,0.16 kcal/mol
10,GGGGACACGTGAAGGG,0.23 kcal/mol
11,AGTGGCACGTGAGGCG,0.04 kcal/mol
12,GTAAACACGTGGGTTG,-0.12 kcal/mol
13,TGCGGCACGTGTCGGT,-0.16 kcal/mol
14,AATTTCACGTGGTGCA,0.26 kcal/mol
15,TTATTCACGTGAGTTT,0.38 kcal/mol
16,AGTGGCACGTGGCGGG,-0.1 kcal/mol
17,GTGGCCACGTGTTAGG,-0.01 kcal/mol
18,GGTAGCACGTGTGTGC,0.04 kcal/mol
19,TGGGTCACGTGGCTTC,0.09 kcal/mol
20,TTGTGCACGTGGCTGT,-0.15 kcal/mol
21,ATGTTCACGTGTTGTT,0.21 kcal/mol
